# Results published in the supplement of paper PMC3334620.
# Over roughly 33,000 sequences, “E-score (-0.5 to 0.5)” has its median near -0.012; the highest 2% begin near 0.29. This is one part of the list.
# Molecular target: T1, Ybr033w (UniProt P38073)
# T1 sequence: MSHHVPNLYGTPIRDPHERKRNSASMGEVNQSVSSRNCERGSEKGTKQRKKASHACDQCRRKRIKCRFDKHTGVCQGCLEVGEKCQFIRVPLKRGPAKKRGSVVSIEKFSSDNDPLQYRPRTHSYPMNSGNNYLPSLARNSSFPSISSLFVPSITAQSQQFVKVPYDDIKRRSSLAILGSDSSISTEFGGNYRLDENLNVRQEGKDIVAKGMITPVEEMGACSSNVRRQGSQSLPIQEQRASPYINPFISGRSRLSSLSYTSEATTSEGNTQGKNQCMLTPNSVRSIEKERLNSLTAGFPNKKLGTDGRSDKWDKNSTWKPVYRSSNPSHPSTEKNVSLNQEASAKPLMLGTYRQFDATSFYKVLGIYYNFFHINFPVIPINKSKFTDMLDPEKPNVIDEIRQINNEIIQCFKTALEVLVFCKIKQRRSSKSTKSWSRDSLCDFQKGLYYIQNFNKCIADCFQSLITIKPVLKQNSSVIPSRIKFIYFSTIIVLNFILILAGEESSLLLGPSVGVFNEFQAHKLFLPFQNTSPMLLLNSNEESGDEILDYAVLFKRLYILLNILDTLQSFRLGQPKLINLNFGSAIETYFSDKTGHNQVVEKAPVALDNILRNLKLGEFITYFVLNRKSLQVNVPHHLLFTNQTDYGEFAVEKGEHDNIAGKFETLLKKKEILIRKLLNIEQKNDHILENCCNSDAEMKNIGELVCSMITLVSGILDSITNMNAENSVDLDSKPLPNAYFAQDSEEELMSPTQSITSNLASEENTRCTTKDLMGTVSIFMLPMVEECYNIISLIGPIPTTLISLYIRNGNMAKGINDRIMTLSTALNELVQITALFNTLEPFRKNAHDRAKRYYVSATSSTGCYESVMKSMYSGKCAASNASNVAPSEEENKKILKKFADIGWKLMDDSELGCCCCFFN
# Test: PBM E-score (8-mer binding enrichment) (E-score (-0.5 to 0.5)); higher = stronger / more preferred TF binding; most listed sequences are background and not binding sites
# Conditions: protein concentration: 200 nM; construct: GST-full length
# Summary of the method: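 Universal all-10-mer Agilent arrays, fresh or stripped once, were converted to double-stranded form by primer extension. GST-tagged yeast transcription factors from PURExpress in vitro transcription/translation, full-length or DNA-binding domain only, were applied at about 100-200 nM and detected with fluorescent anti-GST. After masliner normalisation, the Universal PBM Analysis Suite scored each ungapped eight-base word together with its reverse complement by E-score.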
row,Sequence,PBM E-score
1,ACACCCGT,-0.108
2,GGGCTATA,-0.101
3,CGCAAGGA,0.0217
4,ACCACTAA,0.159
5,AAGGTGGT,0.0271
6,ACGACAAT,0.104
7,ATTAGAGA,0.115
8,CGAACAAG,-0.0298
9,CCAGTCAG,-0.144
10,GCATGATA,0.109
11,CCATGGAG,-0.2
12,CAAAGAAG,0.0853
13,AGCGGGTC,-0.332
14,GACAGAAA,0.16
15,GACAGCAC,-0.00022
16,CTCACGAA,-0.0165
17,AAATTGAA,0.127
18,AGGAGGGG,-0.256
19,GCACATTA,0.0714
20,AACTCGCA,-0.0927
21,AAGAGAAC,0.109
22,CCTAGCCA,-0.0517

row,Sequence,PBM E-score
1,ATATGGGA,0.0235
2,ATCTGTCC,-0.196
3,AAGGAAAT,0.185
4,CGGCTTAC,0.0765
5,AGGCAGGA,-0.106
6,GTGCCGAA,-0.0593
7,CGCAGCAG,-0.109
8,AGTTGTAC,0.0858
9,CGAGAGTC,-0.177
10,AAGAACAG,0.0974
11,CATACTAA,0.195
12,CTGGGCAC,-0.178
13,CTATTCTC,0.12
14,ACTGATAA,0.138
15,ACTCCTCT,-0.183
16,CCGACGTC,-0.0886
17,TAGAGATA,0.167
18,CTTGCTAC,-0.0863
19,ACTGGATA,0.235
20,AACCCCGT,-0.093
21,ACACTTAA,0.203
22,ATGTAGGG,-0.0536

row,Sequence,PBM E-score
1,CCCACGCA,-0.0607
2,TCTGCTAA,-0.0429
3,AGTTAATG,0.216
4,ACGTGGTC,-0.0933
5,GATACCAA,0.111
6,CTTGACGA,-0.169
7,CATCGCGC,-0.113
8,AATAATAG,0.202
9,GCCTACGC,-0.0539
10,CTCGCAAC,-0.052
11,ACGTGGTA,0.0672
12,CAAAAAAG,0.261
13,AAAGTATG,-0.0102
14,GATACTCC,-0.0236
15,AGCGAATC,0.106
16,AAACAGTC,-0.0941
17,CAGTATAA,0.152
18,GCCTAGAC,-0.151
19,CGAGTCGA,0.0303
20,TCGTTTCA,0.181
21,CGGGAGAG,-0.174
22,ACATTGCC,-0.0501

row,Sequence,PBM E-score
1,TCGAAGAA,-0.0772
2,ACAGAAAT,0.137
3,CCCAGTAA,0.033
4,ACCTGTAA,0.186
5,CTTTATGC,0.103
6,GCGTTAAC,-0.073
7,TTGTAAAA,0.08
8,ACATCGAG,-0.171
9,AAGTGCAT,0.0284
10,ACTATCTG,-0.0489
11,CCCTCCAA,-0.221
12,AGGCTCAT,-0.0489
13,ACCAGAAA,0.178
14,CTTAAAAG,-0.139
15,TAATCCGA,0.326
16,CGAGATAG,-0.107
17,AAGTTAGA,0.235
18,ACAAGGAG,0.0547
19,ATTCGCAG,0.113
20,ACAAGATG,0.0627
